In publication PMC12136788:
The list shows a part of the results.

B1: chr15:89832191:89832292:-|3pUTR|ENSG00000157823|msi1|FALSE|unique (ssRNA)
RNA: GGGAGUUCUACAGUCCGACGAUCCUAGGUAGCUGGAACCACAGGCACGCAACCACCACUCCUGGCUAGUUUUAUUUUUUUAGUAGAAUAAGGUCUCACUAUGUUGCACAGGCUGGUCUCUAACUCCUUACCUCAAGCCAUCCUCAACAGAGGAUUGAGCAUCA
B2: chr21:36416827:36416928:+|3pUTR|ENSG00000159259|unk|FALSE|unique (ssRNA)
RNA: GGGAGUUCUACAGUCCGACGAUCAACUUUGGAAGGUAGUUGUGUUUGUUUUCUGAUUUUAAAGGUGACGAUGCUUAUUCUUUUAGUAACUAAGUGAAGUGAAAAAGAUGGGUAUCACCCAUCAUCUUCCCACCAGAAGUAACCCAACAGAGGAUUGAGCAUCA
B3: chr9:95099063:95099164:-|3pUTR|ENSG00000158169|unk|FALSE|unique (ssRNA)
RNA: GGGAGUUCUACAGUCCGACGAUCGAGCGCCCCUCCAACCAGGCUGUUAUUCCCCUGGACUCCGUGACAUCUGUGGAAUUUUUUAGCUCUUUAAAAUCUGUAAUUUGUUGUCUAUUUUUUCAUUCUAAAUAAAACUUCAGUUUGCAACAGAGGAUUGAGCAUCA
B4: ENSG00000100485:stop:overlap|stop_codon|ENSG00000100485|stop_codon|NA|stop_codon (ssRNA)
RNA: GGGAGUUCUACAGUCCGACGAUCAUAUAUAUACACAUAUAUAUACACACACACACACAUUUUAUGUGUCAGUUUUCAAUAUAUAGUUAACACAAAAGCUCUCAGCUUUUAAUUCAAAUAUAGGGAAUAUUUUUAACUUCACAGCAACAGAGGAUUGAGCAUCA
B5: chr20:58360308:58360409:+|3pUTR|ENSG00000124209|msi1|FALSE|unique (ssRNA)
RNA: GGGAGUUCUACAGUCCGACGAUCCAUUGAACAUGUUAGCCUAGGAUACGUACAGUAAAUUAACAAUGAUAGCAGCAGAUGCCUAGCUCAUCCUGGGUUUGCUUCUGACCUUGUCAUGUGUGUGCCACCAAACACGUUAUUGGCCAACAGAGGAUUGAGCAUCA
B6: chr7:80742902:80743013:-|3pUTR|ENSG00000075223|msi1_unk|total|mutant (ssRNA)
RNA: GGGAGUUCUACAGUCCGACGAUCUCAGAGUCACAGUUCCCUUUAUUUCACAUAAGCCCAAACUGACCGACAGUAACGGUGUUCCGUUUUAUACUAUAUUUGUGCUAUUUAAUUCUUUCUAUUUUCACAAUUAUUAAAUUGUGUCAACAGAGGAUUGAGCAUCA
B7: chr9:15474029:15474130:-|CDS|ENSG00000164985|unk|FALSE|unique (ssRNA)
RNA: GGGAGUUCUACAGUCCGACGAUCAAGAAAAGAGCCGGAUAAAAAAGAGGGGAAGAAAGAAGUUGAAUCAAAAAGGAAAAAUUUAGCUAAAACAGGGGUUACUUCAACCUCCGAUUCUGAAGAAGAAGGAGAUGAUCAAGAAGGCAACAGAGGAUUGAGCAUCA
B8: chr11:112085977:112086295:-|three_prime_utr|ENSG00000150779|control|control|control (ssRNA)
RNA: GGGAGUUCUACAGUCCGACGAUCUCACCCCACUGCCUCACUGGAUUGUGAGGAUCAUAUGCGACAAUGUAUUUGAAAACGACUAGAACAUUAUCGGAGGAAGGUGGACUCUGAAGUAGUCGCUGUAGACUAUGGAUGUAGAACCAACAGAGGAUUGAGCAUCA
B9: chr9:121180810:121180911:-|3pUTR|ENSG00000119396|msi1|FALSE|unique (ssRNA)
RNA: GGGAGUUCUACAGUCCGACGAUCUUUGGAUAAAUUUCCUGUUGUGUGGGUGGCAUUUUUCUUAACGAGAUUUGCUUCUGUCUUAGCCUCACACAGGGAAAAUAUCCAUUUAUCUUCUCUCUCGUGCUUAAUUAAUAGCUUUAUCAACAGAGGAUUGAGCAUCA
B10: chr5:150709129:150709230:-|3pUTR|ENSG00000132912|msi1|FALSE|unique (ssRNA)
RNA: GGGAGUUCUACAGUCCGACGAUCCACAAAACACUUUGAUCAUAAACUUUUUUCUUCAGAAGCCAAACUAACUUGCAGAAUAAUAGAGCCACUGGUUUAAUGUUUCCUCAAGAUAGGUUUUAGUGUAAGCUAGUAUUCUGUGUGCAACAGAGGAUUGAGCAUCA
B11: chr11:130405560:130406128:-|CDS|ENSG00000134917|control|control|control (ssRNA)
RNA: GGGAGUUCUACAGUCCGACGAUCGCUGGGGGACUGGUCUGAGUGCUCUAGCACCUGCGGGGCCGGCUGGCAGAGGCGAACUGUAGAGUGCAGGGACCCCUCCGGCCAGGCCUCUGCCACCUGCAACAAGGCUCUGAAACCCGACAACAGAGGAUUGAGCAUCA
B12: chr16:84177846:84179851:-|three_prime_utr|ENSG00000103168|control|control|control (ssRNA)
RNA: GGGAGUUCUACAGUCCGACGAUCGCAGAGAGACCUGGGCUCCCUCCCUGCGGCAGAGCCACCCCCUGCACCCGAGUCAGGCCUAGAGGACAAGCUCAGUGAGCGCCUGGGGGAAGCCUGGGCAGGCCGAGGGGCUGCCUGGUGCAACAGAGGAUUGAGCAUCA
B13: chr1:113706032:113706133:-|CDS|ENSG00000116793|unk|total|mutant (ssRNA)
RNA: GGGAGUUCUACAGUCCGACGAUCCAAUGCCUAUCAGCAAGGAGCCGGUUAUCAGAUGCUGGGAAAUGUUGUCACUAUUGGAUCCGCAUUUUUUCCAUUCUUACAUCGACUUUUCCGUGAGAAGAGCCUUGACCAACUAAAGUCCAACAGAGGAUUGAGCAUCA
B14: ENSG00000124766:be:win_3951|3pUTR|ENSG00000124766|bound_else_gene|NA|bound_elsewhere_windowed (ssRNA)
RNA: GGGAGUUCUACAGUCCGACGAUCGUUUGGGGGAAAAAAAAGAAAAAAUCAUGCCAGCUAAUCAUGUCAAGUUCACUGCCUGUCAGAUUGUUGAUAUAUACCUUCUGUAAAUAACUUUUUUUGAGAAGGAAAUAAAAUCAGCUGCAACAGAGGAUUGAGCAUCA

Each binder was assayed against MSI1 full-length (mouse, UniProt Q61474 1-362) (assay: nsRBNS (natural sequence RNA bind-n-seq); RBNS binding buffer (assumed for nsRBNS): 25 mM Tris pH 7.5, 150 mM KCl, 3 mM MgCl2, 0.01% Triton X-100, 500 ug/ml BSA, 20 U/ml SUPERase-In, 4 C; UNK is unkempt and MSI1 is Musashi-1; names of the RNAs are library labels; protein concentration not given here; high values mean tight binding).
UniProt Q61474, sequence (Q61474 whole entry): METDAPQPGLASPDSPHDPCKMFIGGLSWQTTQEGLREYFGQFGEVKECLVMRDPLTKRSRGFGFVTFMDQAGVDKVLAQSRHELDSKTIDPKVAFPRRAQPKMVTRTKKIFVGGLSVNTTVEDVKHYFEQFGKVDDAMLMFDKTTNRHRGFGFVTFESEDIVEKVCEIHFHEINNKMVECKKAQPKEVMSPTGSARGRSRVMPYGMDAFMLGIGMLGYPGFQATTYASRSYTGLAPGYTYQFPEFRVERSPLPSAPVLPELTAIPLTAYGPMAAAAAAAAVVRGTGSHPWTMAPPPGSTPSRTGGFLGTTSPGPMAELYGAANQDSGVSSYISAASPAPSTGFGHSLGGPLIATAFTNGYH

Binder | binding signal
B1 | 2.34 enrichment R
B2 | 0.33 enrichment R
B3 | 1.23 enrichment R
B4 | 2.06 enrichment R
B5 | 4.2 enrichment R
B6 | 3.37 enrichment R
B7 | 0.83 enrichment R
B8 | 0.66 enrichment R
B9 | 1.11 enrichment R
B10 | 1.47 enrichment R
B11 | 0.472 enrichment R
B12 | 0.54 enrichment R
B13 | 0.27 enrichment R
B14 | 0.499 enrichment R
